Measurements reported in paper PMC7765025.
No constants are given. Whether binding was seen depends on the method and setting. In cells and extracts the contact can be indirect. Some binding calls cover weakened binding; strength is not graded here. For some assays here: Tags and fused reporters may be left off the sequences shown.

T1: GST-fused TAK1 (pEBG-TAK1) (human) (UniProt O43318)
T1 sequence: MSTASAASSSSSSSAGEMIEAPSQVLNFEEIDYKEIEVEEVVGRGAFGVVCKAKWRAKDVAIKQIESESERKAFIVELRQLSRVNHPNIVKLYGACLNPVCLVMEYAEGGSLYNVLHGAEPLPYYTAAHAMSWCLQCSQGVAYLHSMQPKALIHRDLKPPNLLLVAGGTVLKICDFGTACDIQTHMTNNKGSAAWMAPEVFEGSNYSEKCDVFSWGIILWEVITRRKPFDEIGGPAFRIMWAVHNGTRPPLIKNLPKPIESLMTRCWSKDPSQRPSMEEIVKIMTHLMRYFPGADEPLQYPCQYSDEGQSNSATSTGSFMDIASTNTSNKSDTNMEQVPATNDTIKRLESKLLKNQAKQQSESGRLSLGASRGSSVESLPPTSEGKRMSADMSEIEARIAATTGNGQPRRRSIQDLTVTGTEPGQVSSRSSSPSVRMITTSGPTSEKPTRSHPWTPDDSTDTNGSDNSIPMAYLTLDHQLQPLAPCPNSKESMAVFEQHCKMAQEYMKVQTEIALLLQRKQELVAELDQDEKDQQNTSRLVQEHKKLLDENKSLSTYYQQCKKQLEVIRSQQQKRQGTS

T2: endogenous TAK1 of primary mouse NK cells (mouse (endogenous in splenic NK cells)) (UniProt Q62073)
T2 sequence: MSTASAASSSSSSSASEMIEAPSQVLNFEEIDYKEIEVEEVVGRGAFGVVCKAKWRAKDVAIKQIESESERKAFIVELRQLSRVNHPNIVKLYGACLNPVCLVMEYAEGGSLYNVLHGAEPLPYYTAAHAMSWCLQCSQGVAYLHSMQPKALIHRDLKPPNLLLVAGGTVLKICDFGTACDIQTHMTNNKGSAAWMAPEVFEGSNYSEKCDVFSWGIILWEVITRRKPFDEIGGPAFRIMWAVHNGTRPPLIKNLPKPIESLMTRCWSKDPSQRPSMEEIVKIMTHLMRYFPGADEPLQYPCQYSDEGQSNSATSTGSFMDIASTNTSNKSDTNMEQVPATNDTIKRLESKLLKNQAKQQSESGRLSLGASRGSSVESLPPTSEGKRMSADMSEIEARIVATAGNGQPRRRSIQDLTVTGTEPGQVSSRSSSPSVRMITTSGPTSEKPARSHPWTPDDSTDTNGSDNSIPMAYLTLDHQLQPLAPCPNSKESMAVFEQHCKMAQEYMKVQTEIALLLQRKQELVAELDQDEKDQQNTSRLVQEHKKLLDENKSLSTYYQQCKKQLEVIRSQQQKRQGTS


Tests used:
[1] = molecular target: T1, GST-fused TAK1 (pEBG-TAK1) (human); experiment: pull-down; GST pull-down from HEK 293 cells cotransfected with TAK1, TAB1, TAB2 or TAB3 and with or without TXNIP (Figure 3F, Figure S3C,D)
[2] = molecular target: T1, GST-fused TAK1 (pEBG-TAK1) (human); experiment: pull-down; GST pull-down from lysates (RIPA buffer) of transiently cotransfected HEK 293 cells; glutathione Sepharose 4B, 3 h at 4 °C, washed four times; blots with α-FLAG and α-GST
[3] = molecular target: T2, endogenous TAK1 of primary mouse NK cells (mouse (endogenous in splenic NK cells)); experiment: proximity ligation; in situ PLA (Duolink) in fixed, permeabilised freshly isolated mouse splenic NK cells, rabbit anti-TAK1 with mouse anti-TXNIP or mouse anti-TAB1; with or without Pam3CSK4; WT and Txnip-/- cells for TAK1-TAB1

Row | binding [1] | Binder | further results
1 | binds | FLAG-TAB2 (protein, UniProt Q9NYJ8 1-693) MAQGSHQIDFQVLHDLRQKFPEVPEVVVSRCMLQNNNNLDACCAVLSQESTRYLYGEGDLNFSDDSGISGLRNHMTSLNLDLQSQNIYHHGREGSRMNGSRTLTHSISDGQLQGGQSNSELFQQEPQTAPAQVPQGFNVFGMSSSSGASNSAPHLGFHLGSKGTSSLSQQTPRFNPIMVTLAPNIQTGRNTPTSLHIHGVPPPVLNSPQGNSIYIRPYITTPGGTTRQTQQHSGWVSQFNPMNPQQVYQPSQPGPWTTCPASNPLSHTSSQQPNQQGHQTSHVYMPISSPTTSQPPTIHSSGSSQSSAHSQYNIQNISTGPRKNQIEIKLEPPQRNNSSKLRSSGPRTSSTSSSVNSQTLNRNQPTVYIAASPPNTDELMSRSQPKVYISANAATGDEQVMRNQPTLFISTNSGASAASRNMSGQVSMGPAFIHHHPPKSRAIGNNSATSPRVVVTQPNTKYTFKITVSPNKPPAVSPGVVSPTFELTNLLNHPDHYVETENIQHLTDPTLAHVDRISETRKLSMGSDDAAYTQALLVHQKARMERLQRELEIQKKKLDKLKSEVNEMENNLTRRRLKRSNSISQIPSLEEMQQLRSCNRQLQIDIDCLTKEIDLFQARGPHFNPSAIHNFYDNIGFVGPVPPKPKDQRSIIKTPKTQDTEDDEGAQWNCTACTFLNHPALIRCEQCEMPRHF | 
2 |  | FLAG-tagged TXNIP (150C) (domain or fragment, UniProt Q9H3M7 150-391) DVNTPDLMAPVSAKKEKKVSCMFIPDGRVSVSARIDRKGFCEGDEISIHADFENTCSRIVVPKAAIVARHTYLANGQTKVLTQKLSSVRGNHIISGTCASWRGKSLRVQKIRPSILGCNILRVEYSLLIYVSVPGSKKVILDLPLVIGSRSGLSSRTSSMASRTSSEMSWVDLNIPDTPEAPPCYMDVIPEDHRLESPTTPLLDDMDGSQDSPIFMYAPEFKFMPPPTYTEVDPCILNNNVQ | binding [2]: no binding
3 |  | FLAG-tagged TXNIP (1–149) (domain or fragment, UniProt Q9H3M7 1-149) MVMFKKIKSFEVVFNDPEKVYGSGEKVAGRVIVEVCEVTRVKAVRILACGVAKVLWMQGSQQCKQTSEYLRYEDTLLLEDQPTGENEMVIMRPGNKYEYKFGFELPQGPLGTSFKGKYGCVDYWVKAFLDRPSQPTQETKKNFEVVDLV | binding [2]: binds
4 | binds | FLAG-TAB1 (protein, UniProt Q15750 1-504) MAAQRRSLLQSEQQPSWTDDLPLCHLSGVGSASNRSYSADGKGTESHPPEDSWLKFRSENNCFLYGVFNGYDGNRVTNFVAQRLSAELLLGQLNAEHAEADVRRVLLQAFDVVERSFLESIDDALAEKASLQSQLPEGVPQHQLPPQYQKILERLKTLEREISGGAMAVVAVLLNNKLYVANVGTNRALLCKSTVDGLQVTQLNVDHTTENEDELFRLSQLGLDAGKIKQVGIICGQESTRRIGDYKVKYGYTDIDLLSAAKSKPIIAEPEIHGAQPLDGVTGFLVLMSEGLYKALEAAHGPGQANQEIAAMIDTEFAKQTSLDAVAQAVVDRVKRIHSDTFASGGERARFCPRHEDMTLLVRNFGYPLGEMSQPTPSPAPAAGGRVYPVSVPYSSAQSTSKTSVTLSLVMPSQGQMVNGAHSASTLDEATPTLTNQSPTLTLQSTNTHTQSSSSSSDGGLFRSRPAHSLPPGEDGRVEPYVDFAEFYRLWSVDHGEQSVVTAP | 
5 | binds | FLAG-tagged TAB3 (Full) (protein, UniProt Q8N5C8 1-712) MAQSSPQLDIQVLHDLRQRFPEIPEGVVSQCMLQNNNNLEACCRALSQESSKYLYMEYHSPDDNRMNRNRLLHINLGIHSPSSYHPGDGAQLNGGRTLVHSSSDGHIDPQHAAGKQLICLVQEPHSAPAVVAATPNYNPFFMNEQNRSAATPPSQPPQQPSSMQTGMNPSAMQGPSPPPPPPSYMHIPRYSTNPITVTVSQNLPSGQTVPRALQILPQIPSNLYGSPGSIYIRQTSQSSSGRQTPQSTPWQSSPQGPVPHYSQRPLPVYPHQQNYQPSQYSPKQQQIPQSAYHSPPPSQCPSPFSSPQHQVQPSQLGHIFMPPSPSTTPPHPYQQGPPSYQKQGSHSVAYLPYTASSLSKGSMKKIEITVEPSQRPGTAINRSPSPISNQPSPRNQHSLYTATTPPSSSPSRGISSQPKPPFSVNPVYITYTQPTGPSCTPSPSPRVIPNPTTVFKITVGRATTENLLNLVDQEERSAAPEPIQPISVIPGSGGEKGSHKYQRSSSSGSDDYAYTQALLLHQRARMERLAKQLKLEKEELERLKSEVNGMEHDLMQRRLRRVSCTTAIPTPEEMTRLRSMNRQLQINVDCTLKEVDLLQSRGNFDPKAMNNFYDNIEPGPVVPPKPSKKDSSDPCTIERKARRISVTSKVQADIHDTQAAAADEHRTGSTQSPRTQPRDEDYEGAPWNCDSCTFLNHPALNRCEQCEMPRYT | 
6 |  | endogenous TAB1 of primary mouse NK cells (protein, UniProt Q8CF89 1-502) MAAQRRSLLQSEQQPSWTDDLPLCHLSGVGSASNRSYSADGKGTESHPPEDNWLKFRSENNCFLYGVFNGYDGNRVTNFVAQRLSAELLLGQLNTEHTEADVRRVLLQAFDVVERSFLESIDDALAEKASLQSQLPEGVPQHQLPPQYQKILERLKALEREISGGAMAVVAVLLNSKLYVANVGTNRALLCKSTVDGLQVTQLNMDHTTENEDELFRLSQLGLDAGKIKQMGVICGQESTRRIGDYKVKYGYTDIDLLSAAKSKPIIAEPEIHGAQPLDGVTGFLVLMSEGLYKALEAAHGPGQANQEIAAMIDTEFAKQTSLDAVAQAVVDRVKRIHSDTFASGGERAKFCPRHEDMTLLVRNFGYPLGEMSQPTPTPAPGGRVYPVSVPYSSAQSTSKTSVTLSLVMPSQGQMVNGSHSASTLDEATPTLTNQSPTLTLQSTNTHTQSSSSSSDGGLFRSRPAHSLPPGEDGRVEPYVDFAEFYRLWSVDHGEQSVMTAP | binding [3]: binds
7 | binds | HA-TXNIP (pHA-TXNIP) (protein, UniProt Q9H3M7 1-391) MVMFKKIKSFEVVFNDPEKVYGSGEKVAGRVIVEVCEVTRVKAVRILACGVAKVLWMQGSQQCKQTSEYLRYEDTLLLEDQPTGENEMVIMRPGNKYEYKFGFELPQGPLGTSFKGKYGCVDYWVKAFLDRPSQPTQETKKNFEVVDLVDVNTPDLMAPVSAKKEKKVSCMFIPDGRVSVSARIDRKGFCEGDEISIHADFENTCSRIVVPKAAIVARHTYLANGQTKVLTQKLSSVRGNHIISGTCASWRGKSLRVQKIRPSILGCNILRVEYSLLIYVSVPGSKKVILDLPLVIGSRSGLSSRTSSMASRTSSEMSWVDLNIPDTPEAPPCYMDVIPEDHRLESPTTPLLDDMDGSQDSPIFMYAPEFKFMPPPTYTEVDPCILNNNVQ | 
8 |  | endogenous TXNIP of primary mouse NK cells (protein, UniProt Q8BG60 1-397) MVMFKKIKSFEVVFNDPEKVYGSGEKVAGRVIVEVCEVTRVKAVRILACGVAKVLWMQGSQQCKQTLDYLRYEDTLLLEEQPTAGENEMVIMRPGNKYEYKFGFELPQGPLGTSFKGKYGCVDYWVKAFLDRPSQPTQEAKKNFEVMDLVDVNTPDLMAPVSAKKEKKVSCMFIPDGRVSVSARIDRKGFCEGDDISIHADFENTCSRIVVPKAAIVARHTYLANGQTKVFTQKLSSVRGNHIISGTCASWRGKSLRVQKIRPSILGCNILKVEYSLLIYVSVPGSKKVILDLPLVIGSRSGLSSRTSSMASRTSSEMSWIDLNIPDTPEAPPCYMDIIPEDHRLESPTTPLLDDVDDSQDSPIFMYAPEFQFMPPPTYTEVDPCVLNNNNNNNNVQ | binding [3]: binds
